The results in this text go back to the supplement of paper PMC11417369.

This is one part of the list.

The subject of this assay is PfHDP1 homeodomain (GST-tagged). The assay can be described thus: gcPBM binding intensity (ln(normalized median fluorescence intensity)); higher = stronger DNA binding. An outline of the steps:
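Probes on an Agilent 4 × 180k array were primer-extended, double-stranded and 36 bp long, taken from intergenic genomic regions, with negative controls added. GST-tagged P. falciparum DNA-binding domains from E. coli, about 25 μg on average, were applied to the array for 1 h in 1× PBS containing 1% milk, 0.2 mg/ml BSA, 0.5% salmon testes DNA and 0.03% Triton X-100. Binding intensity, obtained after Alexa488 anti-GST antibody detection and a 488 nm scan, is the highest Masliner-normalised natural-log median intensity across replicate spots of either probe orientation.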
Take “AATAATGAAAAATCAAATAACCTAAATTACAACTGT [XGTACX_negctrl_site65]”: the “gcPBM binding intensity (ln)” value worked out at 6.47.

Turning to “TTTTATTTATCATACACACACAGAAAAAAAAAAAAA [CACACA_site158]”, the “gcPBM binding intensity (ln)” value was determined as 6.7.

For “CCTTTCCTTTTATAAGTGCATATAACAAATGTATAC [GTGCAC_site9872]”, the “gcPBM binding intensity (ln)” value stood at 8.03.

“GAATGTTTATTATATGCATGTTATATATATGAATAT [TGCATGCA_site4]”: the “gcPBM binding intensity (ln)” value amounted to 6.6.

As to “TTATGATAATTTTGCACACACTTAGGAAAAATTATG [CACACA_site4949]”, the “gcPBM binding intensity (ln)” value was 10.9.

For the sequence “AAATAATATATATACACACACACATATATATATACA [CACACA_site554]”, the “gcPBM binding intensity (ln)” value amounted to 6.82.

Consider “ACGTATATTTTTACATGTACATATGTAAAAAATTTT [XGTACX_site4587]”, for which the “gcPBM binding intensity (ln)” value turned out to be 6.52.

Turning to “TGTTTTTCATAGTGCACACATAACCAAAAATAGTAT [CACACA_site3150]”, the “gcPBM binding intensity (ln)” value was 10.2.

Take AAATACTGTACAAAGGTGCATAAAAAGTGGGGCATA: the “gcPBM binding intensity (ln)” value turned out to be 9.07.

As to “TCAAAAGAAATAAAAACATGCATAAAAGTAAAAATA [TGCATGCA_site832]”, the “gcPBM binding intensity (ln)” value came out at 6.7.

On to TATATATATATGTGCGTGCACGTTACCTTGCTGTTT, for which the “gcPBM binding intensity (ln)” value was found to be 10.4.

“AAATTTAACAACTTCAAACACACAATATATATATAT [CACACA_site2092]”: the “gcPBM binding intensity (ln)” value was 8.81.

Regarding “TTTCCAAATACAACTACACACAAACAAAAGTTATAT [CACACA_site6544]”, the “gcPBM binding intensity (ln)” value is 6.86.

Turning to “TTTCTTATTTTGGATTGTACGTATATTTTTCATTTT [XGTACX_site224]”, the “gcPBM binding intensity (ln)” value stood at 6.81.

For “AAAAAAAAAAAAAACACACACACAAATACAAATGGT [CACACA_site1721]”, the “gcPBM binding intensity (ln)” value worked out at 6.94.

“TATAATAATAATTATACATGCATGAATATTTATATG [TGCATGCA_site811]”: the “gcPBM binding intensity (ln)” value was determined as 6.46.

Consider “AACAAAAAAAAAAAAAAAAAAAAAAAAAAAAAAATG [CACACA_negctrl_site1127]”, for which the “gcPBM binding intensity (ln)” value was 6.

Regarding “AATAAAAAAAATAGCATACACACATATATACATATA [CACACA_site659]”, the “gcPBM binding intensity (ln)” value was 6.22.

Consider “ATGGACAAGTTAAACGCACACAAATATATACACCCA [CACACA_site8478]”, for which the “gcPBM binding intensity (ln)” value stood at 7.39.

Consider “TTATATTTCAATCATATTGTCACAAGTCATATTTAT [GTGCAC_negctrl_site366]”, for which the “gcPBM binding intensity (ln)” value stood at 6.19.

With “TTACACATGAGAAAATGTACATATAATAAAATATGT [XGTACX_site904]”, the “gcPBM binding intensity (ln)” value was 6.52.

Regarding “TTTTTTAAATGTATTAAAATTATATATATATATATA [GTGCAC_negctrl_site570]”, the “gcPBM binding intensity (ln)” value turned out to be 9.23.

For “AATCAAAACAACAATAGTACATAAAAAAACAAAACA [XGTACX_site4181]”, the “gcPBM binding intensity (ln)” value came to 6.91.

For “ATACATAAATTTAGAAGTACATAACAAATTTTTAAA [XGTACX_site7448]”, the “gcPBM binding intensity (ln)” value amounted to 6.37.

Turning to “TCCATATTTGTTCACACACACACATATTTATATATA [CACACA_site3570]”, the “gcPBM binding intensity (ln)” value was 7.04.

With “ATTAAATGTTATATTTGTACATATTATATATATATA [XGTACX_site5095]”, the “gcPBM binding intensity (ln)” value stood at 8.6.

Consider “TTCATTTTTTATTATAGTACACATAATATTTGCAGA [XGTACX_site4032]”, for which the “gcPBM binding intensity (ln)” value is 6.78.

Regarding “TTTGTTATTTTTTATTGTACTTTTTTTCTTTCATAA [XGTACX_site4302]”, the “gcPBM binding intensity (ln)” value is 7.03.

As to “ATATTTTTAGGTGATTATTATTCGGAGAAGCGAATT [CACACA_negctrl_site1097]”, the “gcPBM binding intensity (ln)” value is 6.2.

For the sequence “GTGAGCTCAGACTACACACACAAAGAAAAAAATAAA [CACACA_site1553]”, the “gcPBM binding intensity (ln)” value was found to be 6.56.

Take “TATATAAACACGTACACACACATATCTGTATTTATA [CACACA_site5858]”: the “gcPBM binding intensity (ln)” value was 7.01.

On to “AATACCTACCAAACATGTACATACGCTTCTCAAATA [XGTACX_site5535]”, for which the “gcPBM binding intensity (ln)” value was 6.83.

Take “ATACAACAAAAATAAGCACACACAAATATACATACA [CACACA_site9201]”: the “gcPBM binding intensity (ln)” value came out at 6.88.

For the sequence “AACAAATACAGACACACACACACACCCAAAAAAAAA [CACACA_site515]”, the “gcPBM binding intensity (ln)” value turned out to be 6.75.

With “ATAAAAATTTAAAAAGAACACACGAAAGAAGGACTT [CACACA_site3929]”, the “gcPBM binding intensity (ln)” value was 7.03.

Regarding “TATTGTTCTTATTTAGTGCATATATAATATAATATA [GTGCAC_site9827]”, the “gcPBM binding intensity (ln)” value is 8.85.

As for ATGTTCTTATTATTGGTGCAAGAATACACAAGAAAA, the “gcPBM binding intensity (ln)” value was 9.55.

As for “TATGTGAATAAATAAGCACACATAAACACATATATA [CACACA_site9359]”, the “gcPBM binding intensity (ln)” value came out at 6.71.

Consider “AACACATAATAAAATTGTACCCAACATTTCTTTTGA [XGTACX_site8061]”, for which the “gcPBM binding intensity (ln)” value came to 6.19.

With “AATAAGAGGATACATTGTACATAAAAAAAAAAAATA [XGTACX_site1815]”, the “gcPBM binding intensity (ln)” value is 6.5.

Turning to “TTTTGAAGCTTTAAAACATATATATATATATATATA [CACACA_negctrl_site184]”, the “gcPBM binding intensity (ln)” value was 9.53.

As to “AGCAAAACAAAAAAATTAAAATTAACATATAATCAT [GTGCAC_negctrl_site393]”, the “gcPBM binding intensity (ln)” value turned out to be 6.17.

As for “ATACCCACTTAAAATACACACACACCGAAAAAAAAA [CACACA_site8867]”, the “gcPBM binding intensity (ln)” value is 6.73.

Regarding “GTGTATAGAATGGTTTCTTTTAAGGTTTTTATTTTT [CACACA_negctrl_site564]”, the “gcPBM binding intensity (ln)” value was 6.8.
